From the supplement of paper PMC12217912
The other results are listed elsewhere or left out. The full chains were built here from the parent and the listed change. Inactive controls read about 0.05.

B1: TEV protease; numbered along this chain (parent)
chain: MGESLFKGPRDYNPISSSICHLTNESDGHTTSLYGIGFGPFIITNKHLFRRNNGTLVVQSLHGVFKVKDTTTLQQHLVDGRDMIIIRMPKDFPPFPQKLKFREPQREERICLVTTNFQTKSMSSMVSDTSCTFPSGDGIFWKHWIQTKDGQCGSPLVSTRDGFIVGIHSASNFTNTNNYFTSVPKNFMELLTNQEAQQWVSGWRLNADSVLWGGHKVFMVKPEEPFQPVKEATQL

Variants of: B1
Test: raw area under fraction-flipped curve 0-4 h after induction (AUC4h, not background-subtracted), DNA-recorder readout of cleavage of the substrate (dimensionless); higher = more cleavage of the substrate by the protease variant
Conditions: temperature: 34 °C; time window: 0-4 h after rhamnose induction
Method: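 In vivo DNA recorder in E. coli TOP10(DE3) ΔrhaA at 34 °C. Each TEVp single-site mutant (parent TEVp 0) is paired with a single-site variant of the 7-mer TEVs (canonical ENLYFQ|S). The substrate sits between flexible linkers in a Bxb1-sfGFP-TEVs-SsrA fusion, so cleavage stabilises Bxb1 and speeds flipping of a recombination array, read by NGS. The value is the raw area under the fraction-flipped curve over 0-4 h after rhamnose induction (AUC4h), with ≥20 reads per time point. It is not background-subtracted; inactive controls average about 0.047.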
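Further: Bxb1 expression induced with 0.2% (w/v) L-rhamnose at OD600 near 0.5, cultures sampled hourly, flipped fraction per protease–substrate barcode pair counted by paired-end Illumina sequencing.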

Variant	area with substrate ENLYFAS	area with substrate ENLYFCS	area with substrate ENLYFES	area with substrate ENLYFGS	area with substrate ENLYFKS	area with substrate ENLYFMS	area with substrate ENLYFPS	area with substrate ENLYFRS	area with substrate ENLYFDS	area with substrate ENLYFFS	area with substrate ENLYFHS	area with substrate ENLYFIS	area with substrate ENLYFNS	area with substrate ENLYFSS	area with substrate ENLYFTS	area with substrate ENLYFVS	area with substrate ENLYFWS	area with substrate ENLYFYS	area with substrate ENLYFLS
MGNSLFKGPRDYNPISSSICHLTNESDGHTTSLYGIGFGPFIITNKHLFRRNNGTLVVQSLHGVFKVKDTTTLQQHLVDGRDMIIIRMPKDFPPFPQKLKFREPQREERICLVTTNFQTKSMSSMVSDTSCTFPSGDGIFWKHWIQTKDGQCGSPLVSTRDGFIVGIHSASNFTNTNNYFTSVPKNFMELLTNQEAQQWVSGWRLNADSVLWGGHKVFMVKPEEPFQPVKEATQL [E3N]	0.0641	0.059	0.0466	0.0631	0.0256	0.0668	0.0359	0.0656	–	–	–	–	–	–	–	–	–	–	–
MGELLFKGPRDYNPISSSICHLTNESDGHTTSLYGIGFGPFIITNKHLFRRNNGTLVVQSLHGVFKVKDTTTLQQHLVDGRDMIIIRMPKDFPPFPQKLKFREPQREERICLVTTNFQTKSMSSMVSDTSCTFPSGDGIFWKHWIQTKDGQCGSPLVSTRDGFIVGIHSASNFTNTNNYFTSVPKNFMELLTNQEAQQWVSGWRLNADSVLWGGHKVFMVKPEEPFQPVKEATQL [S4L]	0.0621	0.0623	0.0617	0.0592	0.0679	0.0652	0.064	0.0671	0.0592	0.0656	0.0645	0.0614	0.0512	0.0618	0.061	0.0645	0.0539	0.0613	–
MGESDFKGPRDYNPISSSICHLTNESDGHTTSLYGIGFGPFIITNKHLFRRNNGTLVVQSLHGVFKVKDTTTLQQHLVDGRDMIIIRMPKDFPPFPQKLKFREPQREERICLVTTNFQTKSMSSMVSDTSCTFPSGDGIFWKHWIQTKDGQCGSPLVSTRDGFIVGIHSASNFTNTNNYFTSVPKNFMELLTNQEAQQWVSGWRLNADSVLWGGHKVFMVKPEEPFQPVKEATQL [L5D]	0.0609	0.105	0.0604	–	0.0522	0.0644	0.0672	–	–	0.0784	0.0522	0.0348	0.0657	0.0763	–	0.0556	0.043	–	0.053
MGESMFKGPRDYNPISSSICHLTNESDGHTTSLYGIGFGPFIITNKHLFRRNNGTLVVQSLHGVFKVKDTTTLQQHLVDGRDMIIIRMPKDFPPFPQKLKFREPQREERICLVTTNFQTKSMSSMVSDTSCTFPSGDGIFWKHWIQTKDGQCGSPLVSTRDGFIVGIHSASNFTNTNNYFTSVPKNFMELLTNQEAQQWVSGWRLNADSVLWGGHKVFMVKPEEPFQPVKEATQL [L5M]	0.0513	–	0.0684	–	0.0355	0.0783	0.0587	0.0497	0.0535	–	–	0.0554	0.0679	–	0.0644	–	0.057	0.0576	0.0613
MGESLFKWPRDYNPISSSICHLTNESDGHTTSLYGIGFGPFIITNKHLFRRNNGTLVVQSLHGVFKVKDTTTLQQHLVDGRDMIIIRMPKDFPPFPQKLKFREPQREERICLVTTNFQTKSMSSMVSDTSCTFPSGDGIFWKHWIQTKDGQCGSPLVSTRDGFIVGIHSASNFTNTNNYFTSVPKNFMELLTNQEAQQWVSGWRLNADSVLWGGHKVFMVKPEEPFQPVKEATQL [G8W]	0.0628	0.0714	–	–	0.0749	–	0.0457	0.0636	–	0.0644	–	0.0593	–	–	0.0703	0.0718	–	–	–
MGESLFKGQRDYNPISSSICHLTNESDGHTTSLYGIGFGPFIITNKHLFRRNNGTLVVQSLHGVFKVKDTTTLQQHLVDGRDMIIIRMPKDFPPFPQKLKFREPQREERICLVTTNFQTKSMSSMVSDTSCTFPSGDGIFWKHWIQTKDGQCGSPLVSTRDGFIVGIHSASNFTNTNNYFTSVPKNFMELLTNQEAQQWVSGWRLNADSVLWGGHKVFMVKPEEPFQPVKEATQL [P9Q]	0.064	0.0557	0.0491	–	0.0583	–	0.0528	–	–	–	0.0427	0.0602	0.0699	–	0.0688	–	0.0682	–	–
MGESLFKGPRDINPISSSICHLTNESDGHTTSLYGIGFGPFIITNKHLFRRNNGTLVVQSLHGVFKVKDTTTLQQHLVDGRDMIIIRMPKDFPPFPQKLKFREPQREERICLVTTNFQTKSMSSMVSDTSCTFPSGDGIFWKHWIQTKDGQCGSPLVSTRDGFIVGIHSASNFTNTNNYFTSVPKNFMELLTNQEAQQWVSGWRLNADSVLWGGHKVFMVKPEEPFQPVKEATQL [Y12I]	0.0625	–	0.0625	0.063	0.0689	0.082	0.0485	–	0.0455	0.0594	0.0529	0.0561	–	0.0521	–	0.0556	0.057	–	0.0734
MGESLFKGPRDVNPISSSICHLTNESDGHTTSLYGIGFGPFIITNKHLFRRNNGTLVVQSLHGVFKVKDTTTLQQHLVDGRDMIIIRMPKDFPPFPQKLKFREPQREERICLVTTNFQTKSMSSMVSDTSCTFPSGDGIFWKHWIQTKDGQCGSPLVSTRDGFIVGIHSASNFTNTNNYFTSVPKNFMELLTNQEAQQWVSGWRLNADSVLWGGHKVFMVKPEEPFQPVKEATQL [Y12V]	0.0591	–	0.064	0.0802	0.0676	0.0678	0.0545	0.0768	0.054	0.053	–	0.0567	–	0.0554	0.05	–	0.0518	–	–
MGESLFKGPRDYCPISSSICHLTNESDGHTTSLYGIGFGPFIITNKHLFRRNNGTLVVQSLHGVFKVKDTTTLQQHLVDGRDMIIIRMPKDFPPFPQKLKFREPQREERICLVTTNFQTKSMSSMVSDTSCTFPSGDGIFWKHWIQTKDGQCGSPLVSTRDGFIVGIHSASNFTNTNNYFTSVPKNFMELLTNQEAQQWVSGWRLNADSVLWGGHKVFMVKPEEPFQPVKEATQL [N13C]	0.0658	0.0622	0.0625	0.067	0.0556	0.0571	0.0559	0.0537	–	0.0649	0.067	0.0592	0.0632	0.0635	0.0829	0.0474	0.0608	0.0575	0.0532
MGESLFKGPRDYQPISSSICHLTNESDGHTTSLYGIGFGPFIITNKHLFRRNNGTLVVQSLHGVFKVKDTTTLQQHLVDGRDMIIIRMPKDFPPFPQKLKFREPQREERICLVTTNFQTKSMSSMVSDTSCTFPSGDGIFWKHWIQTKDGQCGSPLVSTRDGFIVGIHSASNFTNTNNYFTSVPKNFMELLTNQEAQQWVSGWRLNADSVLWGGHKVFMVKPEEPFQPVKEATQL [N13Q]	0.0674	0.0633	0.0545	–	0.0602	0.0642	0.0613	0.0622	0.0704	0.0487	0.0656	0.0518	–	–	0.0612	0.0518	0.0553	–	0.0522
